From the supplement of paper PMC4967469
The IC50 comes from the fitted curve, where viability falls to half of the control; a fit beyond the top or the lowest dose is shown as a bound at that dose. The AUC spans the tested range (256-fold, ending at the top dose) of the same fit; it is 1 without any effect and falls as sensitivity rises. For some assays here: Where the top dose is marked as inferred, it was derived from the fitted curves, not read from the paper.

Key:
Experiment in all cases: Viability of human cancer cell lines after 72 h of drug (GDSC screen)
Bosutinib = compound: COc1cc(Nc2c(C#N)cnc3cc(OCCCN4CCN(C)CC4)c(OC)cc23)c(Cl)cc1Cl [Bosutinib]; details: top dose 2 µM
Protocol: (§1)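 Human cancer cell lines in 384-well plates, medium with 10% serum, drug for 72 h over a 256-fold dose range (nine 2-fold or five 4-fold steps up to the top dose). Adherent lines were fixed and stained with the nucleic acid dye Syto60, suspension lines read with resazurin; signal relative to control wells, capped at 0 and 100%. One two-parameter sigmoid per drug and line, fitted in a mixed model over all curves with the slope shared within a line.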

NVP-BHG712 = compound: Cc1ccc(C(=O)Nc2cccc(C(F)(F)F)c2)cc1Nc1nc(-c2cccnc2)nc2c1cnn2C [NVP-BHG712]; details: top dose 10.24 µM; top dose inferred
Protocol: as §1

IOX2 = compound: O=C(O)CNC(=O)c1c(O)c2ccccc2n(Cc2ccccc2)c1=O [IOX2]; details: top dose 0.1 µM; top dose inferred
Protocol: as §1

## RCC-JF (kidney, adherent)
Bosutinib
  AUC: 0.708
  IC50: 524 nM
NVP-BHG712
  AUC: 0.958
  IC50: > 10200 nM
IOX2
  AUC: 0.966
  IC50: > 100 nM

## JEKO-1 (B-cell lymphoma, suspension)
Bosutinib
  AUC: 0.75
  IC50: 628 nM
IOX2
  AUC: 0.986
  IC50: > 100 nM

## Hey (ovary, adherent)
Bosutinib
  AUC: 0.627
  IC50: 274 nM
NVP-BHG712
  AUC: 0.734
  IC50: 2830 nM
IOX2
  AUC: 0.913
  IC50: > 100 nM

## SNU-1040 (large intestine, adherent)
NVP-BHG712
  AUC: 0.892
  IC50: > 10200 nM
IOX2
  AUC: 0.966
  IC50: > 100 nM

## SF295 (glioma, adherent)
Bosutinib
  AUC: 0.911
  IC50: > 2000 nM
NVP-BHG712
  AUC: 0.925
  IC50: > 10200 nM
IOX2
  AUC: 0.845
  IC50: 80.6 nM

## HCT-15 (large intestine, adherent)
Bosutinib
  AUC: 0.932
  IC50: > 2000 nM
NVP-BHG712
  AUC: 0.95
  IC50: > 10200 nM
IOX2
  AUC: 0.984
  IC50: > 100 nM

## JHOS-3 (ovary, adherent)
Bosutinib
  AUC: 0.983
  IC50: > 2000 nM
NVP-BHG712
  AUC: 0.937
  IC50: > 10200 nM
IOX2
  AUC: 0.975
  IC50: > 100 nM

## RCC-ER (kidney, adherent)
Bosutinib
  AUC: 0.917
  IC50: > 2000 nM
NVP-BHG712
  AUC: 0.986
  IC50: > 10200 nM
IOX2
  AUC: 0.889
  IC50: > 100 nM

## NCI-H1650 (lung adenocarcinoma, adherent)
IOX2
  AUC: 0.979
  IC50: > 100 nM

## CRO-AP2 (B-cell lymphoma, suspension)
Bosutinib
  AUC: 0.94
  IC50: > 2000 nM
IOX2
  AUC: 0.989
  IC50: > 100 nM

## CML-T1 (chronic myeloid leukaemia, suspension)
Bosutinib
  AUC: 0.632
  IC50: 270 nM
IOX2
  AUC: 0.991
  IC50: > 100 nM

## PWR-1E (prostate, adherent)
Bosutinib
  AUC: 0.917
  IC50: > 2000 nM
IOX2
  AUC: 0.97
  IC50: > 100 nM

## EMC-BAC-1 (lung adenocarcinoma, adherent)
Bosutinib
  AUC: 0.827
  IC50: 1460 nM
NVP-BHG712
  AUC: 0.822
  IC50: 7120 nM
IOX2
  AUC: 0.972
  IC50: > 100 nM

## KYAE-1 (oesophagus, suspension)
Bosutinib
  AUC: 0.786
  IC50: 961 nM
NVP-BHG712
  AUC: 0.851
  IC50: 9160 nM
IOX2
  AUC: 0.98
  IC50: > 100 nM

## YH-13 (glioma, adherent)
Bosutinib
  AUC: 0.972
  IC50: > 2000 nM
NVP-BHG712
  AUC: 0.94
  IC50: > 10200 nM
IOX2
  AUC: 0.984
  IC50: > 100 nM

## KMS-11 (myeloma, suspension)
Bosutinib
  AUC: 0.988
  IC50: > 2000 nM
NVP-BHG712
  AUC: 0.867
  IC50: 7090 nM
IOX2
  AUC: 0.988
  IC50: > 100 nM

## HCC-366 (non-small cell lung carcinoma, adherent)
Bosutinib
  AUC: 0.973
  IC50: > 2000 nM
IOX2
  AUC: 0.986
  IC50: > 100 nM

## IGROV-1 (ovary, adherent)
Bosutinib
  AUC: 0.694
  IC50: 571 nM
IOX2
  AUC: 0.968
  IC50: > 100 nM

## HOP-62 (lung adenocarcinoma, adherent)
Bosutinib
  AUC: 0.959
  IC50: > 2000 nM
NVP-BHG712
  AUC: 0.906
  IC50: > 10200 nM
IOX2
  AUC: 0.964
  IC50: > 100 nM

## TC-YIK (cervix, suspension)
Bosutinib
  AUC: 0.986
  IC50: > 2000 nM
IOX2
  AUC: 0.988
  IC50: > 100 nM

## DIFI (large intestine, adherent)
Bosutinib
  AUC: 0.731
  IC50: 586 nM
IOX2
  AUC: 0.973
  IC50: > 100 nM

## OV-56 (ovary, adherent)
Bosutinib
  AUC: 0.972
  IC50: > 2000 nM
NVP-BHG712
  AUC: 0.972
  IC50: > 10200 nM
IOX2
  AUC: 0.988
  IC50: > 100 nM

## OC-314 (ovary, adherent)
Bosutinib
  AUC: 0.914
  IC50: > 2000 nM
NVP-BHG712
  AUC: 0.988
  IC50: > 10200 nM
IOX2
  AUC: 0.98
  IC50: > 100 nM

## NCI-H929 (myeloma, suspension)
Bosutinib
  AUC: 0.931
  IC50: > 2000 nM
IOX2
  AUC: 0.987
  IC50: > 100 nM

## NCI-H460 (large cell lung carcinoma, adherent)
Bosutinib
  AUC: 0.703
  IC50: 436 nM
NVP-BHG712
  AUC: 0.901
  IC50: > 10200 nM
IOX2
  AUC: 0.982
  IC50: > 100 nM

## SF268 (glioma, adherent)
Bosutinib
  AUC: 0.865
  IC50: > 2000 nM
NVP-BHG712
  AUC: 0.892
  IC50: > 10200 nM
IOX2
  AUC: 0.976
  IC50: > 100 nM

## SK-GT-4 (oesophagus, adherent)
Bosutinib
  AUC: 0.81
  IC50: 1380 nM
NVP-BHG712
  AUC: 0.898
  IC50: > 10200 nM
IOX2
  AUC: 0.965
  IC50: > 100 nM

## NCC010 (kidney, adherent)
Bosutinib
  AUC: 0.932
  IC50: > 2000 nM
IOX2
  AUC: 0.969
  IC50: > 100 nM

## MIA-PaCa-2 (pancreas, adherent)
Bosutinib
  AUC: 0.776
  IC50: 876 nM
NVP-BHG712
  AUC: 0.977
  IC50: > 10200 nM

## MDA-MB-231 (breast, adherent)
Bosutinib
  AUC: 0.971
  IC50: > 2000 nM
NVP-BHG712
  AUC: 0.907
  IC50: > 10200 nM
IOX2
  AUC: 0.983
  IC50: > 100 nM

## OVK-18 (ovary, adherent)
Bosutinib
  AUC: 0.954
  IC50: > 2000 nM
NVP-BHG712
  AUC: 0.983
  IC50: > 10200 nM
IOX2
  AUC: 0.981
  IC50: > 100 nM

## BALL-1 (B-cell leukaemia, suspension)
Bosutinib
  AUC: 0.946
  IC50: 1970 nM
IOX2
  AUC: 0.997
  IC50: > 100 nM

## BT-549 (breast, adherent)
Bosutinib
  AUC: 0.877
  IC50: > 2000 nM
IOX2
  AUC: 0.971
  IC50: > 100 nM

## U-266 (myeloma, semi-adherent)
IOX2
  AUC: 0.981
  IC50: > 100 nM

## OACM5-1 (oesophagus, semi-adherent)
Bosutinib
  AUC: 0.977
  IC50: > 2000 nM
NVP-BHG712
  AUC: 0.66
  IC50: 1900 nM
IOX2
  AUC: 0.985
  IC50: > 100 nM

## CHP-134 (neuroblastoma, suspension)
NVP-BHG712
  AUC: 0.872
  IC50: > 10200 nM
